Laboratory results as given in patent US5843437A, “A82846 antibiotics” (Eli Lilly and Company, priority 1995, dated 1998).
≈ marks a conversion by molar mass, not a printed value.

System: Staphylococcus aureus S13E
Assay type: cell-based
Details: S. aureus S13E; agar dilution
Method: The MIC's in Tables VII and VIII were determined by standard agar-dilution assays.

SMILES | MIC
CN[C@H](CC(C)C)C(=O)N[C@H]1C(=O)N[C@@H](CC(N)=O)C(=O)N[C@H]2C(=O)N[C@H]3C(=O)N[C@H](C(=O)N[C@@H](C(=O)O)c4cc(O)cc(O)c4-c4cc3ccc4O)[C@H](O[C@@H]3C[C@@](C)(N)[C@H](O)[C@@H](C)O3)c3ccc(cc3)Oc3cc2cc(c3O[C@H]2O[C@@H](CO)[C@H](O)[C@@H](O)[C@@H]2O[C@H]2C[C@](C)(N)[C@@H](O)[C@H](C)O2)Oc2ccc(cc2Cl)[C@H]1O [A82846A] | 0.125 µg/mL (≈ 0.0802 µM)
CN[C@@H](CC(C)C)C(=O)N[C@H]1C(=O)N[C@H](CC(N)=O)C(=O)N[C@H]2C(=O)N[C@H]3C(=O)N[C@@H](C(=O)NC(C(=O)O)c4cc(O)cc(O)c4-c4cc3ccc4O)[C@@H](O[C@H]3C[C@](C)(N)[C@H](O)[C@@H](C)O3)c3ccc(cc3)Oc3cc2cc(c3O[C@H]2O[C@@H](CO)[C@@H](O)[C@H](O)[C@@H]2O[C@H]2C[C@](C)(N)[C@H](O)[C@@H](C)O2)Oc2ccc(cc2)[C@@H]1O (stereo partly drawn) [A82846C] | 1 µg/mL (≈ 0.656 µM)
CN[C@H](CC(C)C)C(=O)N[C@H]1C(=O)N[C@@H](CC(N)=O)C(=O)N[C@H]2C(=O)N[C@H]3C(=O)N[C@H](C(=O)N[C@H](C(=O)O)c4cc(O)cc(O)c4-c4cc3ccc4O)[C@H](O[C@H]3C[C@](C)(N)[C@@H](O)[C@H](C)O3)c3ccc(c(Cl)c3)Oc3cc2cc(c3O[C@@H]2O[C@H](CO)[C@@H](O)[C@H](O)[C@H]2O[C@H]2C[C@](C)(N)[C@@H](O)[C@H](C)O2)Oc2ccc(cc2Cl)[C@H]1O [A82846B] | 0.125 µg/mL (≈ 0.0785 µM)
